This list was built around the results that the source calls inconclusive (neither active nor inactive); the mix of calls is not that of the screen. No potency is given beside an inconclusive call; the fits are too rough. Activity calls are given as the source filed them. Calls come from the whole dose curve; as a rule, active = well fitted inhibition curve with a large enough effect; inconclusive = small, poorly fitted or top-dose-only effect; inactive = no such curve, though single readings can be large or run the other way.
Key:
[1] = molecular target: Rap guanine nucleotide exchange factor 3 (Homo sapiens) (UniProt O95398); assay: Confirmatory qHTS for antagonist of cAMP-regulated guanine nucleotide exchange factor 3 (EPAC1) (AID 1645880); conditions: EPAC1 Rap1B-BODIPY-GDP exchange, fluorescence; series mostly up to 115 µM; note: nearly all actives have a fitted effect of over 55% in size
How it was run: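 Released BODIPY-GDP fluoresces less than Rap1-bound BODIPY-GDP; the signal is followed at 480/540 nm at 5-min intervals over 30 min, after 5 min at room temperature. Reactions contain 100 nM EPAC1, 250 nM RAP1B-BODIPY-GDP and 50 uM GDP; results are normalized to ATA and DMSO.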

[2] = molecular target: Rap guanine nucleotide exchange factor 4 (Homo sapiens) (UniProt Q8WZA2); assay: Confirmatory qHTS for antagonist of cAMP-regulated guanine nucleotide exchange factor 4 (EPAC2) (AID 1645885); conditions: EPAC2 Rap1B-BODIPY-GDP exchange fluorescence, biochemical; series mostly up to 114 µM; note: nearly all actives have a fitted effect of over 25% in size
Potency is the fitted concentration of half-maximal effect; tags give direction and shape of the fitted curve.

Sequence of UniProt O95398 (O95398 whole entry, looked up): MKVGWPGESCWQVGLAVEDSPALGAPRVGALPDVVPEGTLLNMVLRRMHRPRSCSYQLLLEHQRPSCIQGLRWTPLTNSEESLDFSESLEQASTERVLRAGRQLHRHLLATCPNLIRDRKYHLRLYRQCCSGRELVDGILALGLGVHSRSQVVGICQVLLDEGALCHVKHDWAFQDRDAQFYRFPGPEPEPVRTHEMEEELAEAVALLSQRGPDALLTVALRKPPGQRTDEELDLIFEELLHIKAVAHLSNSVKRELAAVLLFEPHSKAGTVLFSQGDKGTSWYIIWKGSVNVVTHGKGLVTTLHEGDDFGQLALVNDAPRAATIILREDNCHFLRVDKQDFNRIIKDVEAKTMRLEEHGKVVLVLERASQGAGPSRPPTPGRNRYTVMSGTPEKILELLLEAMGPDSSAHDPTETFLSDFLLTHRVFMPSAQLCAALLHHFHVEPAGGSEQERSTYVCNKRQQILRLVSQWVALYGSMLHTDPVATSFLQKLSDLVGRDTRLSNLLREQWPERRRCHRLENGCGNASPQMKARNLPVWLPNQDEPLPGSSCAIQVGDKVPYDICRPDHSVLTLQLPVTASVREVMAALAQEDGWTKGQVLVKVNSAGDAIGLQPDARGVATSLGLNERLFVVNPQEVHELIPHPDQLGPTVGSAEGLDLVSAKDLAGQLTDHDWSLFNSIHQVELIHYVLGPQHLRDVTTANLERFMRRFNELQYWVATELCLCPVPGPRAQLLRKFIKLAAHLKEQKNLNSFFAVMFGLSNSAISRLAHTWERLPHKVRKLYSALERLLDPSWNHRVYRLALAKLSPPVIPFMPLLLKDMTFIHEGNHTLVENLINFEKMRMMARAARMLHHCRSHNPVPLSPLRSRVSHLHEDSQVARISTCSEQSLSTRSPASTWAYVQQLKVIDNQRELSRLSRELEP
Sequence of UniProt Q8WZA2 (Q8WZA2 whole entry, looked up): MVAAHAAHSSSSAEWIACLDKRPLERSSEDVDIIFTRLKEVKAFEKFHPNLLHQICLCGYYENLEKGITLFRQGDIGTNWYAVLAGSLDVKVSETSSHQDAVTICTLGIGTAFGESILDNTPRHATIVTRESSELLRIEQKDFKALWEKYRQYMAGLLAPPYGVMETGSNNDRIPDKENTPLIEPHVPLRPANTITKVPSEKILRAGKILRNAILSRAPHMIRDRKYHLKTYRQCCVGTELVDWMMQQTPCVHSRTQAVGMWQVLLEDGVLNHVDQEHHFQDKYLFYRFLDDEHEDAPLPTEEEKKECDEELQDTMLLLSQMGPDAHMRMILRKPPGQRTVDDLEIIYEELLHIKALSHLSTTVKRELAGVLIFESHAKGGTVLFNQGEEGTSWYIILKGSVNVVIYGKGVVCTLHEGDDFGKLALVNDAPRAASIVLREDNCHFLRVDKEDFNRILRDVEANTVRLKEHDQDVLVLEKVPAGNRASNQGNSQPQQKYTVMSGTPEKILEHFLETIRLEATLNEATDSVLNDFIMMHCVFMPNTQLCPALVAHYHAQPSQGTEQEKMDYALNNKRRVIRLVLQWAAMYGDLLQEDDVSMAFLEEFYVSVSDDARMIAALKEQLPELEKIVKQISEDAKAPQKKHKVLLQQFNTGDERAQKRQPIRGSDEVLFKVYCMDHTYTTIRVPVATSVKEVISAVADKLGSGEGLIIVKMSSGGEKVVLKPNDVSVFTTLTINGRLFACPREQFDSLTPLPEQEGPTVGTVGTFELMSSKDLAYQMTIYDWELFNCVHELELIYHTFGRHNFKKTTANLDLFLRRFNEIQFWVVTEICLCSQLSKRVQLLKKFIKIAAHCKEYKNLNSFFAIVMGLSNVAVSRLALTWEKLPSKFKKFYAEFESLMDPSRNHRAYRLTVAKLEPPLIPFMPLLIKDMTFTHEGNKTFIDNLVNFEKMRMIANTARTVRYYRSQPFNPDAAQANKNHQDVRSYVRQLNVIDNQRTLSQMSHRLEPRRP

Row | SMILES | Potency [1] | Potency [2]
1 | O=C(O)CN1C(=O)/C(=C\c2cccc(OCc3ccccc3F)c2)SC1=S | active: 42.6 µM | active: 84.9 µM
2 | COc1cnc(N(C)C)nc1Sc1cccc(Cl)c1 | inconclusive [inhibitor, partial curve, poor fit] | inconclusive [inhibitor, partial curve]
3 | CCOc1cc(/C=C(\C#N)C(=O)Nc2cccc(C(=O)O)c2)cc(Br)c1OC(=O)c1ccc(OC)cc1 | active: 42.6 µM | active: 12 µM
4 | COCc1cc(C)nc(SCC(=O)c2ccc(O)c(O)c2)c1C#N | active: 37.9 µM | inconclusive [inhibitor, partial curve, poor fit]
5 | CC(C)(C)NC(=O)C(c1ccc(C(F)(F)F)cc1)n1c(=O)c(-c2ccco2)nc2ccccc21 (stereo unspecified) | active: 75.7 µM | inconclusive [inhibitor, partial curve, poor fit]
6 | O=C(O)C1=CC[C@@H](c2ccc(Cl)cc2)N(S(=O)(=O)c2ccc(Cl)cc2)[C@H]1c1ccc(Br)cc1 | active: 75.7 µM | inconclusive [inhibitor, partial curve, poor fit]
7 | COc1cccc(C(=O)Oc2ccc(/C=N/Nc3ccc(C(=O)O)cc3)cc2OC)c1 | inconclusive [inhibitor, partial curve] | inconclusive [inhibitor, partial curve]
8 | CC(=O)NS(=O)(=O)c1ccc(Nc2ccc([N+](=O)[O-])c3nonc23)cc1 | inconclusive [inhibitor, partial curve] | inactive
